Source: paper PMC5681660, “Reduced hepatitis B and D viral entry using clinically applied drugs as novel inhibitors of the bile acid transporter NTCP” (Scientific Reports, 2017)
Counter-ions that a name gives are not always drawn. Like-named read-outs stand apart in the source and are kept apart here.

Experiments:
human NTCP [1] = target: T1, human NTCP (Homo sapiens, UniProt Q14973); experiment: Screening fluorescent competitive Myrcludex B-FITC binding assay (96-well, 10 µM drug)
T1 sequence (Q14973 1-349): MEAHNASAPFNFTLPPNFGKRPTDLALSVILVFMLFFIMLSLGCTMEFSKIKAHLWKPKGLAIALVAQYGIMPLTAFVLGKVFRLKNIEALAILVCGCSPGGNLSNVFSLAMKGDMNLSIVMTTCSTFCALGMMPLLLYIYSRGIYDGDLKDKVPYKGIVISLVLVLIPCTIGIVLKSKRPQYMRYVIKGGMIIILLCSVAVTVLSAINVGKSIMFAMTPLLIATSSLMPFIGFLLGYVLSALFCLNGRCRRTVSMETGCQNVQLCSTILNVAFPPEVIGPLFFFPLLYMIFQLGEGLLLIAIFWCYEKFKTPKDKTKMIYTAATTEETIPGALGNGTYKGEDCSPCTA

human NTCP [2] = target: T1, human NTCP; experiment: Screening taurocholate uptake assay (96-well, [14C]taurocholate, 10 µM drug); conditions: for remaining activity at 10 µM: 10 min, read-out: %NTCP activity
[3] = Prestwick library screen, 10 µM drug, Myrcludex B-FITC binding
[4] = screen, 10 µM drug, Myrcludex B-FITC binding
[5] = screen, 10 µM drug, [14C]taurocholate uptake

| Structure (SMILES) | remaining activity at 10 µM (human NTCP [1]; 0.5 h, read-out: %NTCP binding) [%] | remaining activity at 10 µM (human NTCP [2]) [%] | other results |
| --- | --- | --- | --- |
| CCCCCCCN(CC)CCCC(O)c1ccc(NS(C)(=O)=O)cc1.CCCCCCCN(CC)CCCC(O)c1ccc(NS(C)(=O)=O)cc1.O=C(O)/C=C/C(=O)O (stereo not drawn) [Ibutilide fumarate] |  |  | %NTCP binding (human NTCP [1]; Prestwick library screen, Myrcludex B-FITC binding, 10 µM drug): 85.6166%; %NTCP activity (human NTCP [2]; Prestwick library screen, [14C]taurocholate uptake, 10 µM drug): 87.681% |
| CC(C)OC(=O)CCC/C=C\C[C@@H]1[C@@H](CC[C@@H](O)CCc2ccccc2)[C@H](O)C[C@@H]1O [Latanoprost] | 42.5 | 93.2 |  |
| O=c1cc(-c2ccc(O)c(O)c2)oc2cc(O)cc(O)c12 [Luteolin] | 81.4 | 100 |  |
| CC(NCCc1ccc(O)cc1)C(O)c1ccc(O)cc1 (stereo not drawn) [Ritodrine hydrochloride] | 59.4 | 64.8 |  |
| CN1CCN(CCCN2c3ccccc3Sc3ccc(S(=O)(=O)N(C)C)cc32)CC1.CS(=O)(=O)O.CS(=O)(=O)O [Thioproperazine dimesylate] |  |  | %NTCP binding (human NTCP [1]; [3]): 93.2041%; %NTCP activity (human NTCP [2]; Prestwick library screen, 10 µM drug, [14C]taurocholate uptake): 107.536% |
| CCOC(=O)[C@H](CCc1ccccc1)N[C@@H](C)C(=O)N1CCC[C@H]1C(=O)O [Enalapril maleate] | 71 | 52.5 |  |
| CCOC(=O)[C@H](CCc1ccccc1)N[C@@H](C)C(=O)N1Cc2ccccc2C[C@H]1C(=O)O [Quinapril HCl] | 101 | 80.4 |  |
| O=c1[nH]cc(F)c(=O)[nH]1 [5-fluorouracil] | 95.2 | 92.8 |  |
| Cc1c(N)c(=O)n(-c2ccccc2)n1C [Ampyrone] | 89.5 | 95.4 |  |
| CN1CCc2c(c3ccccc3n2Cc2ccccc2)C1.O=S(=O)(O)c1cccc2c(S(=O)(=O)O)cccc12 [Mebhydroline 1,5-naphtalenedisulfonate] |  |  | %NTCP binding (human NTCP [1]; [3]): 98.573%; %NTCP activity (human NTCP [2]): 36.9909% |
| CN1C(=O)CC(c2ccccc2)C1=O (stereo not drawn) [Phensuximide] | 110 | 84.3 |  |
| C[C@]12CCC(=O)C=C1CC[C@@H]1[C@@H]2C(=O)C[C@]2(C)C(=O)CC[C@@H]12 [Adrenosterone] |  |  | %NTCP binding (human NTCP [1]; [4]): 105.605%; %NTCP activity (human NTCP [2]): 49.5258% |
| CC(Cc1cccc(C(F)(F)F)c1)NCCOC(=O)c1ccccc1 (stereo not drawn) [Benfluorex] | 71.1 | 77.2 |  |
| NC[C@H]1O[C@H](O[C@H]2[C@H](O)[C@@H](O[C@H]3O[C@H](CO)[C@@H](O)[C@H](N)[C@H]3O)[C@H](N)C[C@@H]2N)[C@H](O)[C@@H](O)[C@@H]1O [Kanamycin A sulfate] | 69.3 | 85 |  |
| Cc1ccnc(NS(=O)(=O)c2ccc(N)cc2)n1 [Sulfamerazine] | 79.2 | 124 |  |
| C[C@]12Cc3c[nH]nc3C[C@@H]1CC[C@@H]1[C@@H]2CC[C@@]2(C)[C@H]1CC[C@]2(C)O [Stanozolol] | 47.1 | 46.8 |  |
| CN(C)CCOc1ccc(/C(=C(/CCCl)c2ccccc2)c2ccccc2)cc1 [Toremifene] | 76.7 | 64.7 |  |
| CCCN(CCC)CCc1cccc2c1CC(=O)N2 [Ropinirole HCl] | 89.1 | 113 |  |

| Structure (SMILES) | remaining activity at 10 µM (human NTCP [1]; 0.5 h, read-out: %NTCP binding) [%] | remaining activity at 10 µM (human NTCP [2]) [%] | other results |
| --- | --- | --- | --- |
| O=C(O)Cc1sc(-c2ccccc2)nc1-c1ccc(Cl)cc1 [Fentiazac] | 70 | 43 |  |
| OC(c1cc(C(F)(F)F)nc2c(C(F)(F)F)cccc12)C1CCCCN1 (stereo not drawn) [Mefloquine hydrochloride] | 75.1 | 84 |  |
| CC1CCc2cc(F)cc3c(=O)c(C(=O)O)cn1c23 (stereo not drawn) [Flumequine] | 59 | 101 |  |
| CCOC(=O)OC(C)OC1=C(C(=O)Nc2ccccn2)N(C)S(=O)(=O)c2ccccc21 (stereo not drawn) [Ampiroxicam] | 56.3 | 99.6 |  |
| CN(C)CCOC(=O)C(c1ccccc1)C1(O)CCCC1 (stereo not drawn) [Cyclopentolate hydrochloride] | 96 | 96.5 |  |
| CCN1C(=O)NC(c2ccccc2)C1=O (stereo not drawn) [Ethotoin] | 87.8 | 122 |  |
| C[C@]12CC[C@H](O)C[C@H]1CC[C@@H]1[C@@H]2CC[C@]2(C)[C@@H](C3=CC(=O)OC3)CC[C@]12O [Digitoxigenin] | 58 | 36.4 |  |
| CCOc1nc2cccc(C(=O)O)c2n1Cc1ccc(-c2ccccc2-c2nnn[nH]2)cc1 [Candesartan] | 117 | 77.4 |  |
| CNC(C)CCC=C(C)C.CNC(C)CCC=C(C)C.O=C(O)[C@@H](O)[C@H](O)[C@H](O)[C@@H](O)C(=O)O [Isometheptene mucate] |  |  | %NTCP binding (human NTCP [1]; [4]): 88.0132%; %NTCP activity (human NTCP [2]; [5]): 90.1978% |
| CC1CC(OC(=O)c2ccccc2O)CC(C)(C)C1 (stereo not drawn) [Homosalate] | 80.2 | 54.6 |  |
| O=C(CCCN1CCC2(CC1)C(=O)NCN2c1ccccc1)c1ccc(F)cc1 [Spiperone] | 73.9 | 24.8 |  |
| CN1CCN(C2=Nc3ccccc3Oc3ccc(Cl)cc32)CC1 [Loxapine succinate] | 93.1 | 48.7 |  |
| CCN(CC)C(=O)Nc1ccc(OCC(O)CNC(C)(C)C)c(C(C)=O)c1 (stereo not drawn) [Celiprolol HCl] | 92.1 | 128 |  |
| COc1ccccc1N1CCN(CC(O)COc2cccc3ccccc23)CC1.Cl.Cl (stereo not drawn) [Naftopidil dihydrochloride] |  |  | %NTCP binding (human NTCP [1]; [4]): 105.331%; %NTCP activity (human NTCP [2]; [5]): 58.9029% |
| CC(C)NCC(O)c1ccc(NS(C)(=O)=O)cc1 (stereo not drawn) [Sotalol hydrochloride] | 126 | 58.5 |  |
| CC(C)(C)NCC(O)c1ccccc1Cl (stereo not drawn) [Tulobuterol] | 99.8 | 126 |  |
| CCCC[N+]1(C)[C@@H]2C[C@@H](OC(=O)[C@H](CO)c3ccccc3)C[C@H]1[C@@H]1O[C@@H]12.[Br-] (stereo partly drawn) [Butylscopolammonium (n-) bromide] |  |  | %NTCP binding (human NTCP [1]; [4]): 77.9454%; %NTCP activity (human NTCP [2]): 85.5872% |
| CCCCOc1ccc(OCCCN2CCOCC2)cc1 [Pramoxine hydrochloride] | 83 | 120 |  |
